Source: the supplement of paper PMC6531468
The list shows a part of the results. These are enrichments in a pooled selection; single values are uncertain. Scores sum up all selected molecules that hold the word; the word was not tested alone.

What was measured:
Test in all cases: 6-mer SELEX enrichment z-score vs GST control; IMP3 is the RNA-binding protein IGF2BP3; higher = more enriched by binding
[1] = system: IMP3 KH1-4; conditions: construct: KH1-4 (164-579); SELEX round: R4
Procedure: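 SELEX-seq with GST-tagged IMP3 KH1-4 (Pro164-Lys579) and an N40 RNA pool, round 4. 6-mer z-score of sequence-tag enrichment normalised to the corresponding GST SELEX round; RNA k-mers written as DNA (T for U).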

[2] = system: IMP3 RRM1-2; conditions: construct: RRM1-2 (1-163); SELEX round: R2
Procedure: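 SELEX-seq with GST-tagged IMP3 RRM1-2 (Met1-Asn163) and an N40 RNA pool, round 2. 6-mer enrichment z-score normalised to GST SELEX. RNA written as DNA (T = U).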

[3] = target: IMP3 full-length (UniProt O00425); conditions: construct: FL IMP3 (1-579); SELEX round: R4
Procedure: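 SELEX-seq with GST-tagged full-length IMP3 and an N40 RNA pool, round 4. Each 6-mer is scored as an enrichment z-score of sequence tags containing it, normalised to the matching GST SELEX round. RNA written as DNA (T = U).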

[4] = system: IMP3 KH1-2; conditions: construct: KH1-2 (164-376); SELEX round: R4
Procedure: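 SELEX-seq with GST-tagged IMP3 KH1-2 (Pro164-Phe376) and an N40 RNA pool, round 4 (stringent 300/600 mM KCl washes). 6-mer z-score of sequence-tag enrichment normalised to the corresponding GST SELEX round; RNA k-mers written as DNA (T for U).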

[5] = system: IMP3 KH3-4; conditions: construct: KH3-4 (377-579); SELEX round: R4
Procedure: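 SELEX-seq with GST-tagged IMP3 KH3-4 (Pro377-Lys579) and an N40 RNA pool, round 4. 6-mer z-score of sequence-tag enrichment normalised to the corresponding GST SELEX round; RNA k-mers written as DNA (T for U).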

Sequence of IMP3 KH1-4 (chain, as listed by the source): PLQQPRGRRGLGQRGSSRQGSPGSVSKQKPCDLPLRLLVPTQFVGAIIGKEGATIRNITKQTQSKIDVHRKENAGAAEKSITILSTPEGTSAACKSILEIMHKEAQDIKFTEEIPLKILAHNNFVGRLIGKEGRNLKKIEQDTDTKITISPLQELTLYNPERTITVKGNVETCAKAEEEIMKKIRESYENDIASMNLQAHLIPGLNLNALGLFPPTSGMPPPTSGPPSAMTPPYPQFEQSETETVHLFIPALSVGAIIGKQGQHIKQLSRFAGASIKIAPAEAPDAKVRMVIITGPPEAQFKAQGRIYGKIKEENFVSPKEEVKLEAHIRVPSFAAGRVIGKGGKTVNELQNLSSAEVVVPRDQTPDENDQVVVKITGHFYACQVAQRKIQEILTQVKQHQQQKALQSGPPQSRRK
Sequence of UniProt O00425 (O00425 whole entry): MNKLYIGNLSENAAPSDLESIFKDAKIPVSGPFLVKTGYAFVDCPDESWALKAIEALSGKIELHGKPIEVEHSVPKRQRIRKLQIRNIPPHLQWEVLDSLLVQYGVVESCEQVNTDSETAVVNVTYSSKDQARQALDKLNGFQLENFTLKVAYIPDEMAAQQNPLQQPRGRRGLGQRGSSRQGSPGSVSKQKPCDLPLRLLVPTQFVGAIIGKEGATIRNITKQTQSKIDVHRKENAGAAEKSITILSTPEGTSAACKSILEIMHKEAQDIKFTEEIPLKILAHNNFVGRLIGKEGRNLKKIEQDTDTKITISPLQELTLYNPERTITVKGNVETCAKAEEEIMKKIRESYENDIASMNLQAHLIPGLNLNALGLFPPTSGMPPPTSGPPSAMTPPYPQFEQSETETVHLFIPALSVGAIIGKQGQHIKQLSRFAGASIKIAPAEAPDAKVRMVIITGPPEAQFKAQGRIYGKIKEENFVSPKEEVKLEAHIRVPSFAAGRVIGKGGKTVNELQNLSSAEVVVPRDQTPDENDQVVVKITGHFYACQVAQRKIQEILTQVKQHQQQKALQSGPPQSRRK
Sequence of IMP3 RRM1-2 (chain, as listed by the source): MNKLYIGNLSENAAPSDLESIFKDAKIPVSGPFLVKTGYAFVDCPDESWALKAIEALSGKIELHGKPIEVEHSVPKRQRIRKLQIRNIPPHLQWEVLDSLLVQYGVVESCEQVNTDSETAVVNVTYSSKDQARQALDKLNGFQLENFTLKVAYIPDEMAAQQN
Sequence of IMP3 KH1-2 (chain, as listed by the source): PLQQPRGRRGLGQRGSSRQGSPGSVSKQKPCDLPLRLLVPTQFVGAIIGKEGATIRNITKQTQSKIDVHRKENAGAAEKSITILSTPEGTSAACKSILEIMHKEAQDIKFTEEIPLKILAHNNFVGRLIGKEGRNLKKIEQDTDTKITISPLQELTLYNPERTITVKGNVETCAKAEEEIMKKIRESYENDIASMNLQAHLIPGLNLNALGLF
Sequence of IMP3 KH3-4 (chain, as listed by the source): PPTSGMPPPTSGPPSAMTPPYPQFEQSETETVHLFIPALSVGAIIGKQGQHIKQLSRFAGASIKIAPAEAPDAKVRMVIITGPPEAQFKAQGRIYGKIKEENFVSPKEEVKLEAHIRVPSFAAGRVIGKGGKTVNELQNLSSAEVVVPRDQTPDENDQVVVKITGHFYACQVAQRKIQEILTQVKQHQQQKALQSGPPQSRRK

Row | Sequence | 6-mer SELEX enrichment z-score [1] | 6-mer SELEX enrichment z-score [2] | 6-mer SELEX enrichment z-score [3] | 6-mer SELEX enrichment z-score [4] | 6-mer SELEX enrichment z-score [5]
1 | ACAGTC | 0.973 | 0.675 | 1.45 | 0.69 | 0.255
2 | GTTGTG | -0.052 | 0.311 | -0.216 | -0.113 | 0.006
3 | TGGGGT | 0.36 | 0.469 | 0.365 | 0.524 | 0.623
4 | CGGCTT | 0.382 | 0.499 | 0.587 | 0.315 | 0.767
5 | GCGGGT | -0.31 | 0.17 | 0.328 | -0.075 | 0.004
6 | CCTAGG | -0.485 | 0.043 | -0.335 | -0.43 | -0.474
7 | GTCGGT | 0.769 | 0.609 | 1.07 | 0.73 | 0.8
8 | AGTTTA | -0.026 | 0.054 | -0.178 | -0.007 | 0.297
9 | GCGTCA | -0.731 | 0.416 | 0.514 | -0.603 | -0.568
10 | GTTAGA | 0.027 | -0.079 | -0.251 | -0.127 | 0.088
11 | ACCGCG | -1.15 | -0.575 | -0.397 | -0.984 | -1.42
12 | GGGAAG | 0.82 | -0.495 | 0.235 | 0.917 | 0.799
13 | CAGAGG | 0.599 | 0.158 | 0.752 | 0.586 | 0.475
14 | AGCAAT | -0.083 | 0.595 | 0.353 | -0.043 | 0.064
15 | CGCTGA | -0.553 | -0.454 | -0.404 | -0.403 | -0.54
16 | ACGTCT | -0.768 | 0.229 | -0.128 | -0.615 | -0.567
17 | GGGTGT | -0.31 | 0.398 | 0.049 | -0.115 | -0.043
18 | AGCGGT | -0.111 | 0.138 | 0.208 | -0.116 | 0.071
19 | GATGTC | -0.112 | -0.138 | -0.089 | -0.234 | -0.022
20 | CTATCT | 0.201 | 0.352 | -0.062 | 0.159 | 0.162

Row | Sequence | 6-mer SELEX enrichment z-score [1] | 6-mer SELEX enrichment z-score [2] | 6-mer SELEX enrichment z-score [3] | 6-mer SELEX enrichment z-score [4] | 6-mer SELEX enrichment z-score [5]
21 | AGCTGC | 0.093 | 0.026 | 0.115 | 0.065 | -0.088
22 | CGGTTC | -0.225 | 0.311 | 0.122 | -0.202 | -0.146
23 | GTTTAA | 0.105 | -0.157 | -0.383 | 0.015 | 0.463
24 | AACGAG | -3.57 | -1.53 | -2.23 | -3.38 | -3.01
25 | GTTGTT | -0.053 | 0.401 | -0.132 | -0.073 | 0.109
26 | TAACAA | 1.15 | 0.099 | 0.059 | 1.42 | 2.02
27 | TGACAG | 0.48 | -0.358 | 0.25 | 0.397 | 0.314
28 | TCAGTG | -0.02 | 0.595 | 0.477 | -0.073 | -0.026
29 | AAGCTT | -0.494 | -0.248 | -0.511 | -0.431 | -0.303
30 | AATCCG | -0.522 | -0.752 | -0.53 | -0.119 | -0.861
31 | CCAAAT | -1.03 | -0.896 | -1.47 | -0.941 | -1.26
32 | ATACTA | 1.44 | 0.171 | 0.174 | 1.47 | 1.77
33 | GTAGTC | -0.431 | 0.279 | -0.06 | -0.366 | -0.317
34 | GCAAGA | 0.207 | -0.458 | 0.138 | 0.096 | 0.397
35 | GGTACC | -0.766 | 0.337 | 0.212 | -0.654 | -0.632
36 | AAGTCA | 0.281 | -0.044 | 0.139 | -0.073 | 0.155
37 | GGTAAC | -0.609 | -0.063 | -0.218 | -0.556 | -0.515
38 | TCGGGC | -0.892 | 0.499 | 0.361 | -0.72 | -0.595
39 | GGGTTT | 0.064 | 0.432 | 0.187 | 0.196 | 0.397
40 | ACCTGG | -1.09 | -0.487 | -0.741 | -0.981 | -1.19

Row | Sequence | 6-mer SELEX enrichment z-score [1] | 6-mer SELEX enrichment z-score [2] | 6-mer SELEX enrichment z-score [3] | 6-mer SELEX enrichment z-score [4] | 6-mer SELEX enrichment z-score [5]
41 | GGGCGG | -0.05 | 0.187 | 0.824 | 0.4 | 0.182
42 | CTTCCT | 0.7 | 0.148 | -0.2 | 0.622 | 0.213
43 | ACTCCT | -0.122 | -0.101 | -0.564 | -0.113 | -0.453
44 | AAGGGG | 0.972 | -0.237 | 0.145 | 1.39 | 1.38
45 | TCTGCG | -0.667 | 0.266 | -0.114 | -0.536 | -0.518
46 | GACCGG | -0.345 | -1.01 | -0.041 | -0.304 | -0.553
47 | ATTTAA | 1.59 | -0.157 | 0.045 | 1.44 | 2.82
48 | ATGGTT | 0.227 | 0.375 | 0.19 | 0.201 | 0.381
49 | TTAATT | 1.31 | 0.187 | 0.288 | 1.25 | 2.01
50 | CATTAA | 1.48 | 0.913 | 0.912 | 1.32 | 1.81
51 | CCCCCC | 0.971 | -0.631 | -0.358 | 2.15 | -0.037
52 | CCCTTA | 0.375 | -0.043 | -0.518 | 0.172 | -0.111
53 | AGGAGG | 1.24 | -0.128 | 0.58 | 1.23 | 1.07
54 | TGGTTG | -0.059 | 0.446 | 0.006 | 0.03 | 0.106
55 | CCTACG | -1.06 | -0.441 | -0.958 | -1.03 | -1.22
56 | TTGTGA | 0.167 | -0.164 | -0.436 | -0.058 | 0.281
57 | TAGCGA | -1.02 | -0.306 | -0.673 | -0.937 | -0.774
58 | TTTGAC | -0.011 | -0.278 | -0.486 | -0.133 | -0.017
59 | AGTACC | -1.24 | -0.156 | -0.411 | -1.19 | -1.36
60 | GCCACA | 1.11 | 1.06 | 1.57 | 0.907 | 0.381
